Blank lines part the entries; values can stand above or below the molecule they belong to.
Experiments:
[1] = biological target: T1, plasma kallikrein (pkal) (Homo sapiens, UniProt P03952); assay: HMWK cleavage functional assay (bradykinin release measured by ELISA); assay type: biochemical; settings: for Hill slope: inhibition of HMWK cleavage by pkal
T1 construct: active human plasma kallikrein (pkal, Enzyme Research Labs, South Bend, IN); purchased Enzyme Research Labs
Description: Specifically, the ability of each antibody to inhibit pkal cleavage of its natural substrate, High Molecular Weight Kininogen (HMWK) was observed. In these experiments 10 or 30 nM pkal was preincubated with inhibitory antibodies for 1 hr at RT, then 600 nM HMWK was added and incubated for 20 minutes and the reaction was quenched by adding 0.5 μM AEBSF. The concentration of bradykinin (BK) released from HMWK as catalyzed by pKal was measured using 1/100 dilution of the reaction product in a commercial ELISA kit (Enzo, Farmingdale, NY).
The HMWK assay parameters were physiologically relevant as the concentration of high molecular weight kininogen used is the concentration that circulates in humans and the concentration of plasma kallikrein used is in the range of what has been estimated in plasma from patients with hereditary angioedema (HAE) during an attack.
The IC90 values for the antibodies were also determined to provide an index of relative potency. In HAE, the therapeutically relevant level of inhibition to prevent HAE attacks is thought to be approximately 90% inhibition of plasma kallikrein. This corresponds to a measurement referred to as IC90, which is the concentration of an agent that results in 90% inhibitory effect.

[2] = Cynomolgus pharmacokinetic studies; assay type: in vivo, cynomolgus monkey; settings: male cynomolgus, IV infusion 5 mg/kg
Description: These studies of these antibodies were conducted concurrently, but were independent studies rather than a head-to-head comparison. Cynomolgus monkeys, LM-naïve or naive, 3.0-4.0 kg, male, N=18, were purchased from Hainan Jingang Biotech Co. LTD. The antibodies were prepared in 20 mM Histidine, 150 mM NaCl, 0.01% Tween 80, pH 6.5. In these studies, all antibodies were administered to male cynomolgus monkeys (N=3) via IV infusion over 10 min at 5 mg/kg. Blood was collected from cephalic and saphenous veins into pre-cooled citrate acid tubes at each time point. […] Blood samples were put on wet ice and centrifuged at 4° C. to obtain plasma within 15 minutes of sample collection. Plasma samples were stored at approximately −70 C. Presence of each anti-plasma kallikrein antibody in the plasma samples was determined via ELISA using a plate coated with anti-human antibody as the capture agent and human IgG-heavy and light chain monkey-adsorbed antibody as the detection reagent (Southern Biotech, Cat #: 2049-01 and Bethyl, Cat #A80-319P). ELISA plates were read using a SpectraMax M2.

[3] = system: membrane proteome array; assay: Membrane proteome array assay; assay type: binding; settings: data not shown

T1 sequence (P03952 20-390 limits assumed): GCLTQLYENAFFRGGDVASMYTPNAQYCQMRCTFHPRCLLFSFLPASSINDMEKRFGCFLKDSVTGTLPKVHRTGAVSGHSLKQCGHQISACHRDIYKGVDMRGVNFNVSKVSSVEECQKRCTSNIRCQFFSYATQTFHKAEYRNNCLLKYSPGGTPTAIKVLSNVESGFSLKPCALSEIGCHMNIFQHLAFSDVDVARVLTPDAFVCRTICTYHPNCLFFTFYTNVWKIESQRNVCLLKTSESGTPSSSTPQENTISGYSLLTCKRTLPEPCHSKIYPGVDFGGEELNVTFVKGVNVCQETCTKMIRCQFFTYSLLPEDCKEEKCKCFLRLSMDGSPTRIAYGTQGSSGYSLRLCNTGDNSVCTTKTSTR
T1 sequence (P03952 391-638 limits assumed): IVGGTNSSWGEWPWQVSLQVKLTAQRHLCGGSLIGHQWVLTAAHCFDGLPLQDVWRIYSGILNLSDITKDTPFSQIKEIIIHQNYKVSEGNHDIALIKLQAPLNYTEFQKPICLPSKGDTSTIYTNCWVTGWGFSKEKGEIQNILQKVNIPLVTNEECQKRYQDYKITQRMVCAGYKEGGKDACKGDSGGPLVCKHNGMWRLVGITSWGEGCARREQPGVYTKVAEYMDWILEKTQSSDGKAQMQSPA

IC90 ([1]; HMWK functional assay, 10 or 30 nM pkal preincubated 1 hr RT, 600 nM HMWK 20 min, bradykinin by ELISA): 30 nM | Hill slope [1]: ~2
B1: MAb4: MAb3 VL and VH as full length human IgG1 kappa; heavy chain SEQ ID NO: 7, light chain SEQ ID NO: 8 (antibody)
heavy: QVQLVQSGAEVKKPGSSVKVSCKASGYAFSSYWMNWVRQAPGQGLEWIGQIYPGDDDTNYNAKFQGRVTITVDKSTTTAYMELSSLRSEDTAVYFCAGSLMVTTGAPFDYWGQGTTVTVSSASTKGPSVFPLAPSSKSTSGGTAALGCLVKDYFPEPVTVSWNSGALTSGVHTFPAVLQSSGLYSLSSVVTVPSSSLGTQTYICNVNHKPSNTKVDKRV[human IgG1 Fc cut from this listing]
light: DIQMTQSPSSLSASVGDRVTITCKASQDVGIAVAWYQQKPGKAPKFLIYYASHRGWGVPDRFSGSGSGTDFTLTISSLQPEDFATYFCQQYRSYPLTFGQGTKLEIKRTVAAPSVFIFPPSDEQLKSGTASVVCLLNNFYPREAKVQWKVDNALQSGNSQESVTEQDSKDSTYSLSSTLTLSKADYEKHKVYACEVTHQGLSSPVTKSFNRGEC
CI (mL/day/kg) (Mean ± SD) [2]: 4.85 ± 0.87 mL/day/kg | T ½ (days) (Mean ± SD) [2]: 10.9 ± 0.4 days | Vss (mL/kg) (Mean ± SD) [2]: 72.2 ± 11.1 mL/kg | off target binding [3]: No off target binding was observed

Hill slope [1]: ~2
B2: MAb4-LS: MAb4 with M428L and N434S; heavy chain SEQ ID NO: 9, light chain SEQ ID NO: 8 (antibody)
heavy: QVQLVQSGAEVKKPGSSVKVSCKASGYAFSSYWMNWVRQAPGQGLEWIGQIYPGDDDTNYNAKFQGRVTITVDKSTTTAYMELSSLRSEDTAVYFCAGSLMVTTGAPFDYWGQGTTVTVSSASTKGPSVFPLAPSSKSTSGGTAALGCLVKDYFPEPVTVSWNSGALTSGVHTFPAVLQSSGLYSLSSVVTVPSSSLGTQTYICNVNHKPSNTKVDKRV[human IgG1 Fc with changes cut from this listing]
light: B1 light
CI (mL/day/kg) (Mean ± SD) [2]: 3.80 ± 0.13 mL/day/kg | T ½ (days) (Mean ± SD) [2]: 23.2 ± 3.5 days | Vss (mL/kg) (Mean ± SD) [2]: 114.4 ± 9.6 mL/kg | terminal half-life [2]: approximately 23 days

From patent US20240218079A1, “PLASMA KALLIKREIN ANTIBODIES AND USES THEREOF” (Astria Therapeutics, Inc., priority 2021, published 2024)
